According to the antibiotic and cytotoxicity screens of Wong et al. (2023):
This is one part of the list.

Experiments:
[1] = test system: HSkMC (human skeletal muscle cells); experiment: cytotoxicity call (relative viability < 0.9); conditions: 10 µM
[2] = test system: HepG2; experiment: cytotoxicity call (relative viability < 0.9); conditions: 10 µM
[3] = test system: S. aureus RN4220; experiment: growth inhibition call (relative growth <= 0.2); conditions: 50 µM

| Structure (SMILES) | cytotoxicity call [1] | cytotoxicity call [2] | growth inhibition call [3] |
| --- | --- | --- | --- |
| C[C@@H]1CN([C@@H](C)CO)C(=O)c2cc(NC(=O)CCN3CCOCC3)ccc2O[C@@H]1CN(C)C(=O)NC1CCCCC1 | inactive | inactive | inactive |
| C[C@@H]1CN([C@H](C)CO)S(=O)(=O)c2ccc(C#Cc3ccncc3)cc2O[C@@H]1CN(C)C(=O)c1ccncc1 | inactive | active | inactive |
| C[C@@H]1C[C@H](O)/C=C/[C@H](O)[C@@H](O)CC(=O)O1 | inactive | inactive | inactive |
| COc1ccc(S(=O)(=O)Nc2ccc3c(c2)CC(=O)N([C@@H](C)CO)C[C@H](C)[C@@H](CN(C)S(=O)(=O)c2ccccc2)O3)cc1 | inactive | inactive | inactive |
| COCC(=O)N1C[C@]2(CCN(CC2)C(=O)CN2CCOCC2)c2c([nH]c3cc(ccc23)OC)[C@H]1CO | inactive | inactive | inactive |
| C[C@H]1CN([C@@H](C)CO)C(=O)c2cc(NS(=O)(=O)c3cn(C)cn3)ccc2O[C@H]1CN(C)S(=O)(=O)c1ccc(Cl)cc1 | inactive | inactive | inactive |
| Cc1noc(C)c1NC(=O)Nc1ccc2c(c1)C(=O)N([C@@H](C)CO)C[C@@H](C)[C@H](CN(C)Cc1ccc(C(F)(F)F)cc1)O2 | inactive | inactive | inactive |
| O=C(NC1(C(F)(F)F)Oc2cc(Cl)c(Cl)cc2O1)C1=C(N2CCOCC2)/C(=C/c2ccccc2)CC1 | inactive | active | inactive |
| C[C@@H]1CN([C@@H](C)CO)C(=O)c2cc(NC(=O)C3CC3)ccc2O[C@@H]1CN(C)C(=O)Nc1ccc2c(c1)OCO2 | inactive | inactive | inactive |
| CC(C)NC(=O)N(C)C[C@@H]1OCCCC[C@H](C)Oc2ccc(NC(=O)Nc3ccc(C(F)(F)F)cc3)cc2C(=O)N([C@@H](C)CO)C[C@@H]1C | active | active | inactive |
| COc1ccc(NC(=O)Nc2ccc3c(c2)C(=O)N([C@H](C)CO)C[C@H](C)[C@H](CN(C)C(=O)Cc2ccccc2)OCCCC[C@H](C)O3)cc1 | inactive | inactive | inactive |
| Clc1ccc(-c2cnc3ccc(-c4ccccc4)cn23)cc1 | inactive | inactive | inactive |
| C[C@@H]1[C@@H]([Si](C)(C)F)[C@H](CCO)O[C@@]12C(=O)N(Cc1ccccc1)c1ccc(N(C=O)c3ccccc3)cc12 | inactive | inactive | inactive |
| Cc1cc2c(cc1C)CSC(c1ccccc1)SC2 | inactive | inactive | inactive |
| C[C@H](CO)N1C[C@H](C)[C@H](CN(C)C(=O)Nc2cccc3ccccc23)Oc2ccc(NS(=O)(=O)c3cccs3)cc2CC1=O | inactive | inactive | inactive |
| C[C@@H]1CCCCO[C@@H](CN(C)C(=O)CCC(F)(F)F)[C@@H](C)CN([C@H](C)CO)C(=O)c2cc(NC(=O)CCC(F)(F)F)ccc2O1 | inactive | inactive | inactive |
| CC(C)NC(=O)N(C)C[C@@H]1Oc2c(NC(=O)Nc3ccc4c(c3)OCO4)cccc2C(=O)N([C@@H](C)CO)C[C@H]1C | inactive | active | inactive |
| COc1ccc(S(=O)(=O)N(C)C[C@@H]2Oc3cc(C4=CCCC4)ccc3S(=O)(=O)N([C@@H](C)CO)C[C@H]2C)cc1 | inactive | inactive | inactive |
| Cc1noc(C)c1NC(=O)Nc1ccc2c(c1)C(=O)N([C@@H](C)CO)C[C@@H](C)[C@@H](CN(C)S(=O)(=O)c1cccs1)OCCCC[C@@H](C)O2 | inactive | inactive | inactive |
| Cc1ccc(O)cc1 | inactive | inactive | inactive |
| C[C@H](CO)N1C[C@H](C)[C@@H](CN(C)Cc2ccc3c(c2)OCO3)OCCCC[C@H](C)Oc2ccc(NC(=O)c3ccccc3)cc2C1=O | inactive | inactive | inactive |
| Cc1ccc(S(=O)(=O)N(C)C[C@H]2OCCCC[C@H](C)Oc3ccc(NC(=O)CCC(F)(F)F)cc3C(=O)N([C@H](C)CO)C[C@@H]2C)cc1 | inactive | inactive | inactive |
| Cc1ccc(S(=O)(=O)N(C)C[C@@H]2OCCCC[C@H](C)Oc3ccc(NS(C)(=O)=O)cc3C(=O)N([C@H](C)CO)C[C@H]2C)cc1 | inactive | inactive | inactive |
| COc1ccc(NC(=O)N(C)C[C@@H]2Oc3ncc(C#C[C@@H](C)O)cc3C(=O)N([C@H](C)CO)C[C@H]2C)cc1 | inactive | inactive | inactive |
| CC[C@@H](NC)C(=O)O | inactive | inactive | inactive |
| COC(=O)c1cc(=O)[nH]c2c1c(=O)n(C)c(=O)n2C | inactive | inactive | inactive |
